From the supplement of paper PMC10441789
This is one part of the list. Antibody binding of pooled human sera (four to six donors per pool; dilution not stated) to peptides of the Trypanosoma cruzi antigen TSSA on microarrays. Quantile-normalised fluorescence in arbitrary units, mean of duplicate arrays; higher = more binding. No active / inactive call. The uninfected pools are read here as the healthy donors of the same country. The strongest signals lie near the top of the scale (about 60,000).

Assays:
Assay in all cases: antibody binding signal (normalised fluorescence) (arbitrary fluorescence units); higher = stronger serum antibody binding to peptide
[1] = system: pooled sera of chronic Chagas disease patients, Argentina
Experimental: (§1)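 Microarray of 15-residue peptides over residues 30-55 of Trypanosoma cruzi TSSAII, each with 1 to 10 substitutions at naturally variable positions, probed with one serum pool per country.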

[2] = system: pooled sera of chronic Chagas disease patients, Bolivia
Experimental: as §1

[3] = system: pooled sera of chronic Chagas disease patients, Brazil
Experimental: as §1

[4] = system: pooled sera of chronic Chagas disease patients, Colombia
Experimental: as §1

[5] = system: pooled sera of chronic Chagas disease patients, Mexico
Experimental: as §1

[6] = system: pooled sera of chronic Chagas disease patients, USA
Experimental: as §1

[7] = system: pooled sera of uninfected people, Argentina
Experimental: as §1

[8] = system: pooled sera of uninfected people, Bolivia
Experimental: as §1

[9] = system: pooled sera of uninfected people, Brazil
Experimental: as §1

[10] = system: pooled sera of uninfected people, Colombia
Experimental: as §1

[11] = system: pooled sera of uninfected people, Mexico
Experimental: as §1

[12] = system: pooled sera of uninfected people, USA
Experimental: as §1

Sequence	antibody binding signal [1]	antibody binding signal [2]	antibody binding signal [3]	antibody binding signal [4]	antibody binding signal [5]	antibody binding signal [6]	antibody binding signal [7]	antibody binding signal [8]	antibody binding signal [9]	antibody binding signal [10]	antibody binding signal [11]	antibody binding signal [12]
TSSTPPSGKDKKTAA	24600	1490	740	465	39100	650	454	318	97.8	154	97	169
KAATGGAPSPSGASS	621	247	406	359	1870	539	364	140	101	99.5	91.2	233
PPSGKDNKPATGEAP	47500	48200	47800	387	16500	45300	1100	1120	404	302	358	287
TENKTAAGGAPSQPG	25800	4570	8490	4650	561	1310	371	173	590	167	454	231
TISTPPSGKDKKPAT	24500	1910	3750	311	52000	611	200	375	217	170	149	159
GKENKAAAGGTPSPS	1040	294	3020	4660	2150	8080	278	76.4	455	178	113	98.2
DKKAAAGEAPSPPGA	722	213	8200	379	400	11500	186	116	137	119	115	118
PPSGTEKKTAAGETP	18600	8540	14000	580	1340	2470	636	387	326	485	238	209
TDKKPAAGEAPSPSG	428	444	12600	268	183	14200	113	299	157	76	119	94.8
TPPSGTENKAATGEA	42300	38200	43500	216	1640	19100	1760	267	273	356	232	201
GKEKKTAAGGTPSQP	504	229	469	4500	1110	1940	193	88.2	245	172	264	110
EKKAATGGAPSPPGA	2140	258	545	2710	1310	1350	432	1360	125	979	172	688
TSSTPPSGKDNKPAA	19200	4440	22800	669	21100	13600	1230	956	156	205	118	363
SGKEKKTAAGETPSQ	5080	1470	3730	2570	5790	5640	240	168	91.4	257	185	137
GTEKKAAAGGTPSQP	680	200	327	6270	616	1820	236	523	1270	141	434	150
EKKAATGGAPSPSGA	1040	260	853	2430	2080	1350	412	1210	120	943	167	560
SSTPPSGKEKKAATG	12300	188	233	317	22000	631	279	415	109	283	80.1	105
PSGTEKKPAAGETPS	27000	6560	20700	6260	6590	6900	677	501	872	1110	846	610
SSTPPSGKDNKAATG	7630	2680	4090	500	17600	2520	301	598	144	205	120	173
PSGKEKKTATGEAPS	13000	2500	10900	4030	4780	16500	408	342	101	180	144	133
